Experimental data reported in the RNAGym collection of RNA variant scans (doi:10.7554/elife.90254).
Read counts are not given, so values of variants with three or more changes are uncertain.

B1: LINE1-mini (parent)
chain: GGCAGAGCUCAACACAGCGUGGCAAAGUGGCUGUGGCUAGACUGCC

Variants of: B1
Assay: self-cleavage, relative activity (ratio to wild type); higher = more cleavage; in vitro, sequencing; the parent is a self-cleaving ribozyme

Variant | self-cleavage
A4G A11C C18G G44C | 0.03
A4C G21U G30U C45U | 0.25
A4G A11G A12U G21C | 0
A4C G35U U43C | 0.12
A4G C8U U28G C45U | 0.56
A4C U9G G36C | 0.04
A4C G7A U9G A11U A12G G17C | 0.01
A4G C13A U28C | 0.05
A4C G21A G22A G36C | 0.17
A4G A12C C13A G36U C45U | 0.03
A4G A11G A12U C23A C45A | 0.01
A4G A11C C18G A25C G40C | 0.04
A4C G7C G19A | 0.78
A4G C18G G30C U34A G44U | 0.02
A4C U20G A26U U32A U34A G44A | 0.01
A4C G33U C45A | 0.03
A4C G35U A41U | 0.13
A4G A16C U20G | 0.01
A4G A11U C13A A14U U43C | 0.02
A4C U20A U34C U38C | 0.01
A4C G7A C46G | 0.07
A4G C10A G22U C45U | 0.01
A4G C8G C18G A26C G30C | 0.01
A4C G21A G44C C45A | 0.05

Variant | self-cleavage
A4C G7C A16C G29C G40A | 0.02
A4G C10A U34G C46A | 0.01
A4G A12U U34G | 0.04
A4G C18U G29U U34C C45A | 0.27
A4C U9C U32G | 0.03
A4C G7A U34A A39G | 0.02
A4G C15U G36A | 0.11
A4C G7C C10G A11G G22C C45G | 0.01
A4G C8A A12C G21A | 0.02
A4G C8A G21C U28C G40A C46G | 0.04
A4G A14G C15A G19C | 0.36
A4C U9C C10A A16C U20A G22U U32C | 0.02
A4G C8G A41U | 0.2
A4C U20G U28A | 0.04
A4C G36U C37U | 0.05
A4G A6U C10U G36A | 0.05
A4C U9G C10U A25C G35A | 0.02
A4C U32A G36C | 0.06
A4G A14C G35U G40C | 0.04
A4G A16G A24C A26G | 0
A4G C10U U20G A25G C45A | 0.04
A4G A11G G33C | 0.01
A4G A11G G33U | 0.07
A4G C23A A24G U28C G35A U43A | 0.04

Variant | self-cleavage
A4G A16U G17A U20A | 0.06
A4C G36A U38A C46G | 0.45
A4G A24U A41C | 0.01
A4C U9C C15U C42A U43C | 0.23
A4G C8U G21U C46A | 0.08
A4C U28G G35A C42G | 0.09
A4C G19U A24U | 0.03
A4C G7C C8U G30C C42G | 0.02
A4C G29A G44A | 0.04
A4G A12G C31A C37U C46U | 0.03
A4G A14G G40A | 0
A4G C15U C18G | 0.07
A4C U9A G30C U38A A41C | 0.37
A4G C15U U32G | 0.04
A4C U9C A12C G19A G27U | 0.01
A4G C13U A16C C45U | 0.62
A4G C15G A41U C42A | 0.03
A4C G17A U20A G21C | 0.03
A4C G7U C8U U9A A14G U28C G30C U32A | 0.15
A4G A16G A25G C46A | 0.02
A4G C13U G30U | 0.32
A4G C8A C46A | 0.15
A4G A6G A11C G19A | 0
A4G C10A C45A | 0.03

Variant | self-cleavage
A4C U9C C18A U32C | 0.02
A4C G7C U9C C13A G36C | 0.02
A4C U28A G44A | 0.16
A4G A16C U20G G29U U34C | 0.44
A4G C23A C31A | 0.54
A4G C8G A16G G21A | 0.02
A4G A24U G30U U43A | 0.02
A4G A11U G35U C46G | 0.02
A4C G17C A41U | 0.01
A4C U32A A39C C46G | 0.02
A4G A25U G44U | 0.07
A4G A25G A39G | 0.17
A4G C10A C23G A26U U28G | 0.64
A4G C13U U34G U38A | 0.18
A4G C10A U20A G21U | 0.01
A4G A6U U9A | 0.03
A4C U9C A11C A12C G29U | 0.01
A4C G17A A24U G30A | 0.04
A4G A39U C42A | 0.07
A4C U34G C37G | 0.03
A4G C13U G19C A39U | 0.05
A4G C13A G29A G36C A41G C45A | 0.19
A4C G35C C42U | 0.06
A4C G17C U32G | 0.07

Variant | self-cleavage
A4G C8U C10U A16U C18G C23G A24C U32A A39G | 0
A4C G7C A24G | 1.54
A4G C8A A12G G30C U38A | 0.03
A4G C15G G33A C42G | 0.01
A4C G44C C46U | 0.05
A4C G40U C42A | 0.18
A4G A25C G36U C46U | 0.01
A4G C15G G27U C42U | 0.02
A4G C10A C13A | 0.02
A4G C8G C13G C18U G30U | 0.03
A4C G7C A24U A26U C37A | 0.19
A4G C10A G17C G19C C31G C37A A39U G40A | 0
A4C U9A G19A U28G | 0.07
A4C G35A A39G | 0
A4C G22U C45G | 0.34
A4C G22A G29U C46U | 0.37
A4G C8A G27A C42G | 0.12
A4G C23A U28C G29A | 0.13
A4C G19U G36C | 0.16
A4C G19C U38C A39C | 0.03
A4G A16C C18A G21C G35A U38C | 0.03
A4G A6U G17U | 0.17
A4G A24C G27C G33C C46A | 0.09
A4G A16C A41U | 0.01

Variant | self-cleavage
A4G A11C U32A G44U | 0.03
A4C G22U A39C A41C | 0.07
A4G A14C G21U G35A | 0.13
A4G A24C C46A | 0.05
A4C G27C G33C U38G | 0.05
A4G C13A G17C G35C | 0.15
A4C G21A A24G G40A | 0.2
A4G A12C U38A | 0.03
A4G A11U U20G G36C | 0.01
A4G A6C G21C G27U G36U | 0.02
A4G A12C A41G | 0.02
A4G C18U U20G A24C G30U | 0.04
A4G C10U A26U G30U | 0.16
A4C U20C A24G G27U G29A G36A C37G | 0.02
A4C G22A G36U C37U | 0.02
A4G C18G U20G G21A G30C A39C | 0.07
A4G A6C C8A G21A G22A G40U U43C | 0.09
A4G C15U A16G | 0.33
A4G C8A A26C | 0.44
A4C U9A C18U C45A | 0.02
A4C G17U G30C G36A G40C | 0.09
A4C G33U G36A U38C | 0.06
A4C G22U G29U | 0.13
A4G C15U G19C G21U A25C G27U G29U A41U U43A | 0.11

Variant | self-cleavage
A4G C15A G27U U28C | 0.39
A4G A24U U32C G36C A39G | 0.06
A4C U20C C23U A25U | 0.02
A4G A11U G21A | 0.6
A4G A16G G17C | 0.21
A4G A11C C31U C45A | 0.02
A4G C8U U9A | 0.27
A4G C10A G19U | 0.01
A4G C15A G19A A25C C37G | 0.02
A4C G29U U32A C42A | 0.05
A4C G19A U34A A41G | 0.05
A4G A14G U38C C46G | 0.13
A4G A11C C18G A25U G30U U38C C42G | 0.01
A4C G19A G35U | 0.1
A4G A11U A12C C18A U20C G40A | 0
A4G A24U G27U C31A | 0.11
A4G A16C G40C | 0.02
A4C G17C C37A U38A C42U | 0.03
A4G C13U U28A G33A | 0.37
A4G A6U C8G C13U C18U | 0.02
A4G A16G G27C | 0.04
A4C U28G U32C | 0.04
A4C G17A U34C | 0.1
